According to the supplement of paper PMC12217912:
This is one part of the list. Sequences were assembled here from the parent chain. Inactive controls read about 0.05.

B1: TEV protease; numbered along this chain (parent)
chain: MGESLFKGPRDYNPISSSICHLTNESDGHTTSLYGIGFGPFIITNKHLFRRNNGTLVVQSLHGVFKVKDTTTLQQHLVDGRDMIIIRMPKDFPPFPQKLKFREPQREERICLVTTNFQTKSMSSMVSDTSCTFPSGDGIFWKHWIQTKDGQCGSPLVSTRDGFIVGIHSASNFTNTNNYFTSVPKNFMELLTNQEAQQWVSGWRLNADSVLWGGHKVFMVKPEEPFQPVKEATQL

Variants of: B1
Experiment: raw area under fraction-flipped curve 0-4 h after induction (AUC4h, not background-subtracted), DNA-recorder readout of cleavage of the substrate (dimensionless); higher = more cleavage of the substrate by the protease variant
Conditions: temperature: 34 °C; time window: 0-4 h after rhamnose induction
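Note: Bxb1 expression induced with 0.2% (w/v) L-rhamnose at OD600 near 0.5, cultures sampled hourly, flipped fraction per protease–substrate barcode pair counted by paired-end Illumina sequencing.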

| Variant | area with substrate ENLYFQF | area with substrate ENLYFQI | area with substrate ENLYFQK | area with substrate ENLYFQQ | area with substrate ENLYFQR | area with substrate ENLYFQS | area with substrate ENLYFQT | area with substrate ENLYFQY | area with substrate ENLYFQH | area with substrate ENLYFQM | area with substrate ENLYFQN | area with substrate ENLYFQP | area with substrate ENLYFQW | area with substrate ENLYFQL | area with substrate ENLYFQG | area with substrate ENLYFQV |
| --- | --- | --- | --- | --- | --- | --- | --- | --- | --- | --- | --- | --- | --- | --- | --- | --- |
| Q105E | 0.0697 | 0.0293 | 0.0651 | 0.0722 | 0.061 | 0.106 | 0.0623 | 0.0984 |  |  |  |  |  |  |  |  |
| T114K | 0.102 |  |  |  |  | 0.101 |  | 0.0508 | 0.0438 | 0.0789 | 0.0819 | 0.0611 | 0.0647 |  |  |  |
| Y179K | 0.0466 | 0.0547 | 0.0658 |  |  | 0.0602 | 0.0611 |  | 0.0659 | 0.0334 |  |  | 0.0471 | 0.0633 |  |  |
| F6V |  | 0.0791 | 0.0496 |  |  | 0.129 |  |  |  |  |  |  |  | 0.0719 | 0.174 |  |
| T31D |  | 0.0941 | 0.0696 |  | 0.0719 | 0.116 | 0.0737 | 0.108 |  | 0.0962 | 0.103 |  | 0.0663 |  | 0.0856 | 0.143 |
| H62R |  | 0.0612 |  |  | 0.055 | 0.101 | 0.0594 |  | 0.0822 | 0.0904 | 0.0816 | 0.0683 | 0.114 | 0.0607 | 0.111 |  |
| T70G |  | 0.056 | 0.0763 |  |  | 0.0759 | 0.052 |  | 0.0603 | 0.0964 | 0.0627 | 0.0643 | 0.063 | 0.0574 | 0.0897 |  |
| E107H |  |  | 0.0711 |  | 0.0575 | 0.105 |  |  |  |  | 0.0707 |  | 0.0567 | 0.038 | 0.0856 |  |
| Q118M |  | 0.0509 |  |  | 0.0629 | 0.118 | 0.0668 |  | 0.095 |  | 0.0569 | 0.0416 |  |  | 0.071 |  |
| C131D |  |  |  |  | 0.0754 | 0.0907 |  |  |  |  | 0.0915 |  |  | 0.0633 | 0.0623 |  |
| G138N |  |  | 0.0542 |  | 0.0357 | 0.0983 | 0.0594 |  |  |  |  |  | 0.0887 |  | 0.0957 | 0.0649 |
| N175R |  | 0.0508 | 0.05 | 0.0689 | 0.057 | 0.125 | 0.0471 | 0.064 |  |  | 0.0879 | 0.0657 |  |  | 0.118 | 0.0613 |
| G202H |  | 0.0736 | 0.0738 | 0.0571 | 0.0644 | 0.0707 | 0.0562 | 0.061 |  | 0.0667 | 0.0689 |  | 0.0496 | 0.062 | 0.0623 |  |
| P225V |  | 0.0626 | 0.0754 |  |  | 0.101 | 0.0602 |  | 0.0891 | 0.0942 | 0.0664 |  | 0.0714 | 0.0596 | 0.0841 |  |
| R81K |  | 0.045 | 0.0365 |  | 0.0608 | 0.105 | 0.0622 | 0.0771 | 0.074 |  |  | 0.0595 | 0.0754 | 0.0563 |  |  |
| D82G |  |  |  | 0.0568 |  | 0.0581 |  |  | 0.049 | 0.0516 | 0.0567 |  | 0.0571 | 0.0642 |  | 0.0682 |
| W199L |  | 0.0443 |  |  |  | 0.0713 |  | 0.0576 | 0.0558 |  | 0.0651 |  |  |  |  |  |
| D69N |  | 0.0567 |  |  | 0.0479 | 0.0999 | 0.0575 | 0.0469 |  |  | 0.0702 | 0.0606 | 0.073 | 0.0613 |  | 0.0519 |
| R81F |  | 0.06 | 0.0676 |  | 0.0574 | 0.0862 | 0.0527 | 0.0656 |  | 0.0707 | 0.0751 | 0.0504 |  | 0.0572 |  | 0.065 |
| M122T |  | 0.0559 | 0.0897 |  | 0.0566 | 0.106 |  |  |  | 0.0915 | 0.0897 | 0.0563 | 0.049 |  |  | 0.0565 |
| V183R |  | 0.0431 |  |  |  | 0.0521 |  |  |  | 0.0494 |  | 0.0617 | 0.0455 | 0.0468 |  |  |
| E189A |  | 0.0715 |  |  |  | 0.098 | 0.0689 |  |  |  | 0.0784 |  |  |  |  | 0.0536 |
| G8Q |  |  |  |  |  | 0.113 | 0.0698 |  |  |  | 0.0826 |  |  |  |  | 0.0561 |
